To fix the notation:
B1: Caulobacter ParB omega fusion; a variant is named by its letters at X, in order, B8GW30 (parent)
chain: MESVVVGEPGMSEGRRGLGRGLSALLGEVDAAPAQAPGEQLGGSREAPIEILQRNPDQPRRTFREEDLEDLSNSIREKGVLQPILVRPSPDTAGEYQIVAGERAWRAAQRAGLKTVPIMVRELDDLAVLEIGIIENVQRADLNVLEEALSYKVLMEKFERTQENIAQTIGKSXSHVANXMRLLXLPDEVQSYLVSGELTAXHARAIAAAADPVALAKQIIEGGLSVRETEALARKAPNLSAGKSKGGRPPRVKDTDTQALESDLSSVLGLDVSIDHRGSTGTLTITYATLEQLDDLCNRLTRGI

Over roughly 81,000 sequences, “one-hybrid fitness for binding parS DNA” has its median near -0.17; the highest 2% begin near 0.51. Some of the results follow.

Variants of B1 are the subject of the assay. Kind of assay: one-hybrid fitness for binding parS DNA (scaled: cognate 1, non-cognate 0); higher = stronger binding. As to conditions: with parS DNA site. The gist of the method:
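In E. coli USO, a HIS3 reporter with its site placed 19 bp from the promoter was used to select Caulobacter ParB variants randomised at four specificity codons. Growth lasted 48 hours at 37°C on histidine-free M9 containing 0.1 mM IPTG and 5 mM 3-AT. Fitness was taken as the log change in variant-to-wild-type read ratio from Illumina sequencing of pre- and post-selection plasmids, rescaled between the non-cognate and cognate sites.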
With SIVG, the “one-hybrid fitness for binding parS DNA” value was at most 0.2.

For EMYL, the “one-hybrid fitness for binding parS DNA” value was at most 0.2.

As to ANNG, the “one-hybrid fitness for binding parS DNA” value is at most 0.2.

For RDAF, the “one-hybrid fitness for binding parS DNA” value is at most 0.2.

For QDWV, the “one-hybrid fitness for binding parS DNA” value was at most 0.2.

For PIYR, the “one-hybrid fitness for binding parS DNA” value was at most 0.2.

As for QFTQ, the “one-hybrid fitness for binding parS DNA” value was at most 0.2.

Take MITP: the “one-hybrid fitness for binding parS DNA” value is at most 0.2.

As to IYHT, the “one-hybrid fitness for binding parS DNA” value was at most 0.2.

Take EEQR: the “one-hybrid fitness for binding parS DNA” value was at most 0.2.

Consider KVNY, for which the “one-hybrid fitness for binding parS DNA” value is at most 0.2.

As to NRVQ, the “one-hybrid fitness for binding parS DNA” value is at most 0.2.

As for QIDH, the “one-hybrid fitness for binding parS DNA” value was at most 0.2.

In the case of NGRL, the “one-hybrid fitness for binding parS DNA” value is at most 0.2.

QYVG: the “one-hybrid fitness for binding parS DNA” value was at most 0.2.

For DTTY, the “one-hybrid fitness for binding parS DNA” value was at most 0.2.

Take NVAS: the “one-hybrid fitness for binding parS DNA” value is at most 0.2.

HYHS: the “one-hybrid fitness for binding parS DNA” value is at most 0.2.

HHWC: the “one-hybrid fitness for binding parS DNA” value was at most 0.2.

Turning to HQIN, the “one-hybrid fitness for binding parS DNA” value was at most 0.2.

Regarding VGNC, the “one-hybrid fitness for binding parS DNA” value is at most 0.2.

As for HAQS, the “one-hybrid fitness for binding parS DNA” value is at most 0.2.

For the variant KTRI, the “one-hybrid fitness for binding parS DNA” value is at most 0.2.

As to PCGH, the “one-hybrid fitness for binding parS DNA” value is at most 0.2.

On to SSQI, for which the “one-hybrid fitness for binding parS DNA” value is at most 0.2.

On to LGML, for which the “one-hybrid fitness for binding parS DNA” value was at most 0.2.

Regarding QAYY, the “one-hybrid fitness for binding parS DNA” value was at most 0.2.

In the case of IRME, the “one-hybrid fitness for binding parS DNA” value is at most 0.2.

Consider ANKL, for which the “one-hybrid fitness for binding parS DNA” value is at most 0.2.

With YAEG, the “one-hybrid fitness for binding parS DNA” value was at most 0.2.

On to VDHL, for which the “one-hybrid fitness for binding parS DNA” value was at most 0.2.

Turning to NADS, the “one-hybrid fitness for binding parS DNA” value is at most 0.2.

With RYTE, the “one-hybrid fitness for binding parS DNA” value was at most 0.2.

Consider TCMR, for which the “one-hybrid fitness for binding parS DNA” value was at most 0.2.

As to YLIS, the “one-hybrid fitness for binding parS DNA” value is at most 0.2.

With MDRP, the “one-hybrid fitness for binding parS DNA” value is at most 0.2.

Take CRTN: the “one-hybrid fitness for binding parS DNA” value is at most 0.2.

For WARC, the “one-hybrid fitness for binding parS DNA” value is at most 0.2.

Regarding HRKW, the “one-hybrid fitness for binding parS DNA” value is at most 0.2.

Turning to LGTA, the “one-hybrid fitness for binding parS DNA” value is at most 0.2.

With GDSP, the “one-hybrid fitness for binding parS DNA” value was at most 0.2.

In the case of YCDY, the “one-hybrid fitness for binding parS DNA” value is at most 0.2.

As for SLPD, the “one-hybrid fitness for binding parS DNA” value was at most 0.2.

For the variant MIWG, the “one-hybrid fitness for binding parS DNA” value is at most 0.2.

For QHQC, the “one-hybrid fitness for binding parS DNA” value is at most 0.2.

For RSRP, the “one-hybrid fitness for binding parS DNA” value was at most 0.2.

Take TQQI: the “one-hybrid fitness for binding parS DNA” value is at most 0.2.

Consider IQML, for which the “one-hybrid fitness for binding parS DNA” value is at most 0.2.

With HCIS, the “one-hybrid fitness for binding parS DNA” value was at most 0.2.

For RSRA, the “one-hybrid fitness for binding parS DNA” value came out at 0.605.

With VTCT, the “one-hybrid fitness for binding parS DNA” value is at most 0.2.

Consider MLEF, for which the “one-hybrid fitness for binding parS DNA” value is at most 0.2.

Consider TVTS, for which the “one-hybrid fitness for binding parS DNA” value was at most 0.2.

TRGC: the “one-hybrid fitness for binding parS DNA” value is at most 0.2.

As to GMCR, the “one-hybrid fitness for binding parS DNA” value was at most 0.2.

Regarding DRVW, the “one-hybrid fitness for binding parS DNA” value was at most 0.2.

With GSSH, the “one-hybrid fitness for binding parS DNA” value was at most 0.2.

As to RLKM, the “one-hybrid fitness for binding parS DNA” value was found to be 0.399.

Consider CVFR, for which the “one-hybrid fitness for binding parS DNA” value was at most 0.2.

QIWW: the “one-hybrid fitness for binding parS DNA” value was at most 0.2.

NHMR: the “one-hybrid fitness for binding parS DNA” value was at most 0.2.

SMQN: the “one-hybrid fitness for binding parS DNA” value was at most 0.2.

With VRHW, the “one-hybrid fitness for binding parS DNA” value was at most 0.2.

Consider WQTP, for which the “one-hybrid fitness for binding parS DNA” value was at most 0.2.

For SCRY, the “one-hybrid fitness for binding parS DNA” value was at most 0.2.

Turning to QFFR, the “one-hybrid fitness for binding parS DNA” value is at most 0.2.

For WDTS, the “one-hybrid fitness for binding parS DNA” value was at most 0.2.

For SQEY, the “one-hybrid fitness for binding parS DNA” value was at most 0.2.

Regarding PLQL, the “one-hybrid fitness for binding parS DNA” value was at most 0.2.

Consider CVNC, for which the “one-hybrid fitness for binding parS DNA” value is at most 0.2.

On to FCMC, for which the “one-hybrid fitness for binding parS DNA” value is at most 0.2.

RLQV: the “one-hybrid fitness for binding parS DNA” value is at most 0.2.

For the variant GYHF, the “one-hybrid fitness for binding parS DNA” value is at most 0.2.

With YWPL, the “one-hybrid fitness for binding parS DNA” value was at most 0.2.

As to TDNY, the “one-hybrid fitness for binding parS DNA” value is at most 0.2.

Consider KFHC, for which the “one-hybrid fitness for binding parS DNA” value was at most 0.2.

With CYRV, the “one-hybrid fitness for binding parS DNA” value is at most 0.2.

Turning to CGFT, the “one-hybrid fitness for binding parS DNA” value was at most 0.2.

Turning to NPFD, the “one-hybrid fitness for binding parS DNA” value is at most 0.2.

GIVL: the “one-hybrid fitness for binding parS DNA” value is at most 0.2.

For PPAL, the “one-hybrid fitness for binding parS DNA” value is at most 0.2.

Consider CILD, for which the “one-hybrid fitness for binding parS DNA” value was at most 0.2.

For TASM, the “one-hybrid fitness for binding parS DNA” value is at most 0.2.

For EPHR, the “one-hybrid fitness for binding parS DNA” value was at most 0.2.

On to QGTI, for which the “one-hybrid fitness for binding parS DNA” value was at most 0.2.

As to HTHC, the “one-hybrid fitness for binding parS DNA” value is at most 0.2.

As to WSFC, the “one-hybrid fitness for binding parS DNA” value was at most 0.2.

In the case of FYDL, the “one-hybrid fitness for binding parS DNA” value is at most 0.2.

In the case of PGEL, the “one-hybrid fitness for binding parS DNA” value was at most 0.2.

As for TVVC, the “one-hybrid fitness for binding parS DNA” value was at most 0.2.

HSAY: the “one-hybrid fitness for binding parS DNA” value was at most 0.2.

In the case of VNQT, the “one-hybrid fitness for binding parS DNA” value is at most 0.2.

Consider RVCW, for which the “one-hybrid fitness for binding parS DNA” value was determined as 0.255.

Consider RDSY, for which the “one-hybrid fitness for binding parS DNA” value was at most 0.2.

For the variant LGYR, the “one-hybrid fitness for binding parS DNA” value was at most 0.2.

Consider QGWD, for which the “one-hybrid fitness for binding parS DNA” value is at most 0.2.

As to ICAG, the “one-hybrid fitness for binding parS DNA” value is at most 0.2.

As to NFKP, the “one-hybrid fitness for binding parS DNA” value was at most 0.2.

For WKTS, the “one-hybrid fitness for binding parS DNA” value was at most 0.2.

Take RNEV: the “one-hybrid fitness for binding parS DNA” value was at most 0.2.

On to QQLN, for which the “one-hybrid fitness for binding parS DNA” value is at most 0.2.

With IKRV, the “one-hybrid fitness for binding parS DNA” value was at most 0.2.

Turning to TADV, the “one-hybrid fitness for binding parS DNA” value was at most 0.2.

Consider KLPG, for which the “one-hybrid fitness for binding parS DNA” value is at most 0.2.

As to AWKV, the “one-hybrid fitness for binding parS DNA” value was at most 0.2.

For EVST, the “one-hybrid fitness for binding parS DNA” value was at most 0.2.

Regarding QVMT, the “one-hybrid fitness for binding parS DNA” value was at most 0.2.

As for DSVS, the “one-hybrid fitness for binding parS DNA” value was at most 0.2.

For the variant RQIC, the “one-hybrid fitness for binding parS DNA” value amounted to 0.735.

As for DGNT, the “one-hybrid fitness for binding parS DNA” value is at most 0.2.

In the case of VRWT, the “one-hybrid fitness for binding parS DNA” value is at most 0.2.

On to RQWD, for which the “one-hybrid fitness for binding parS DNA” value is at most 0.2.

Regarding EARM, the “one-hybrid fitness for binding parS DNA” value is at most 0.2.

Regarding RCLF, the “one-hybrid fitness for binding parS DNA” value was determined as 0.256.

With LNNC, the “one-hybrid fitness for binding parS DNA” value is at most 0.2.

Take EYDV: the “one-hybrid fitness for binding parS DNA” value was at most 0.2.

Consider HLMG, for which the “one-hybrid fitness for binding parS DNA” value is at most 0.2.

As for MKYK, the “one-hybrid fitness for binding parS DNA” value was at most 0.2.

As to QLHW, the “one-hybrid fitness for binding parS DNA” value is at most 0.2.

In the case of TYAI, the “one-hybrid fitness for binding parS DNA” value is at most 0.2.

Take TVMG: the “one-hybrid fitness for binding parS DNA” value was at most 0.2.

With HAAN, the “one-hybrid fitness for binding parS DNA” value was at most 0.2.

FHAC: the “one-hybrid fitness for binding parS DNA” value was at most 0.2.

In the case of HFCC, the “one-hybrid fitness for binding parS DNA” value was at most 0.2.

Regarding CWPL, the “one-hybrid fitness for binding parS DNA” value is at most 0.2.

On to AIIT, for which the “one-hybrid fitness for binding parS DNA” value is at most 0.2.

For QRAQ, the “one-hybrid fitness for binding parS DNA” value was at most 0.2.

With QITE, the “one-hybrid fitness for binding parS DNA” value is at most 0.2.

VSCS: the “one-hybrid fitness for binding parS DNA” value was at most 0.2.

Consider NPPY, for which the “one-hybrid fitness for binding parS DNA” value was at most 0.2.

Regarding ELPF, the “one-hybrid fitness for binding parS DNA” value is at most 0.2.

As to QKEM, the “one-hybrid fitness for binding parS DNA” value is at most 0.2.

As for NLNC, the “one-hybrid fitness for binding parS DNA” value was at most 0.2.

For STNG, the “one-hybrid fitness for binding parS DNA” value was at most 0.2.

As to ESWE, the “one-hybrid fitness for binding parS DNA” value was at most 0.2.

WDEG: the “one-hybrid fitness for binding parS DNA” value is at most 0.2.

Consider KQEN, for which the “one-hybrid fitness for binding parS DNA” value is at most 0.2.

In the case of AVLY, the “one-hybrid fitness for binding parS DNA” value is at most 0.2.

In the case of AVMG, the “one-hybrid fitness for binding parS DNA” value is at most 0.2.

Consider TNIM, for which the “one-hybrid fitness for binding parS DNA” value was at most 0.2.

In the case of QTGW, the “one-hybrid fitness for binding parS DNA” value is at most 0.2.

Turning to DTSK, the “one-hybrid fitness for binding parS DNA” value was at most 0.2.

QHQF: the “one-hybrid fitness for binding parS DNA” value was at most 0.2.

For HMDG, the “one-hybrid fitness for binding parS DNA” value is at most 0.2.

Consider WFTS, for which the “one-hybrid fitness for binding parS DNA” value is at most 0.2.

With RCHF, the “one-hybrid fitness for binding parS DNA” value is 0.297.

Take IHVW: the “one-hybrid fitness for binding parS DNA” value was at most 0.2.

In the case of TGNS, the “one-hybrid fitness for binding parS DNA” value is at most 0.2.

Consider IQLT, for which the “one-hybrid fitness for binding parS DNA” value is at most 0.2.

In the case of TLST, the “one-hybrid fitness for binding parS DNA” value was at most 0.2.

In the case of LHRF, the “one-hybrid fitness for binding parS DNA” value is at most 0.2.

As to EGCS, the “one-hybrid fitness for binding parS DNA” value was at most 0.2.

Turning to SREP, the “one-hybrid fitness for binding parS DNA” value was at most 0.2.

Source of the values: a collection of fitness landscapes (doi:10.1016/j.celrep.2020.107928).
